{"source": "the supplement of paper PMC10126150", "note": "Sequences with one replicate were seen in a single cluster, so their values are uncertain.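 Note: ATP exposure 15 min at 22 °C before imaging.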", "data": [{"test_system": "ATP", "assay": "switch fluorescence ratio, 500 uM ATP over buffer (Cy3 cluster intensity, sum of 5 cycles each) (fold (ratio)); higher = stronger signal-on switching upon ATP binding; sequences stand for … in TCGTCGGCAGCGTCAGATGTGTATAAGAGACAGTTTTTTTTTTTTTTTTTTTTTTTTT…TC", "details": "aptamer strand: ATP DNA aptamer (quencher-CACCTGGGGGAGTATTGCGGAGGAAGG + anchor), 100 nM annealed; ATP concentration: 500 uM; one replicate", "outline": "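Cy3-labelled switching-strand clusters on a modified Illumina MiSeq flow-cell were annealed to 100 nM quencher-labelled ATP aptamer and imaged first in selection buffer, then after 15 min with 500 uM ATP at 22 °C. NaOH stripping and re-annealing separated each of five buffer/ATP cycles, and clusters outside 100-1000 RFU were excluded. The fluorescence ratio sums target-cycle Cy3 intensity over buffer-cycle Cy3 intensity per cluster and averages it per switch-domain sequence.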", "values": [{"sequence": "TACATATATT", "switch fluorescence ratio": 1.07}, {"sequence": "TACATCGAGT", "switch fluorescence ratio": 0.998}, {"sequence": "TACATCTTCT", "switch fluorescence ratio": 1.05}, {"sequence": "TACATGATGT", "switch fluorescence ratio": 0.978}, {"sequence": "TACATGCGTA", "switch fluorescence ratio": 0.908}, {"sequence": "TACATTCCGG", "switch fluorescence ratio": 1.21}, {"sequence": "TACATTTAAC", "switch fluorescence ratio": 1.08}, {"sequence": "TACATTTCCG", "switch fluorescence ratio": 1.03}, {"sequence": "TACCAGCCGT", "switch fluorescence ratio": 0.962}, {"sequence": "TACCAGGCTT", "switch fluorescence ratio": 1.01}, {"sequence": "TACCATCTTT", "switch fluorescence ratio": 0.975}, {"sequence": "TACCCACGCG", "switch fluorescence ratio": 1.33}, {"sequence": "TACCCCATTT", "switch fluorescence ratio": 1.16}, {"sequence": "TACCCGCCTA", "switch fluorescence ratio": 1.17}, {"sequence": "TACCCGCTGA", "switch fluorescence ratio": 1.47}, {"sequence": "TACCCGGTAT", "switch fluorescence ratio": 0.998}, {"sequence": "TACCCTTTTG", "switch fluorescence ratio": 1.03}, {"sequence": "TACCGCAGGC", "switch fluorescence ratio": 1.65}, {"sequence": "TACCGCGTT", "switch fluorescence ratio": 1.06}, {"sequence": "TACCGCTCCA", "switch fluorescence ratio": 1.58}, {"sequence": "TACCGCTCGC", "switch fluorescence ratio": 1.56}, {"sequence": "TACCGGAAGC", "switch fluorescence ratio": 1.09}, {"sequence": "TACCGGGAAT", "switch fluorescence ratio": 0.985}, {"sequence": "TACCGGGGAA", "switch fluorescence ratio": 0.982}, {"sequence": "TACCGGGTAT", "switch fluorescence ratio": 0.973}, {"sequence": "TACCGGTTAT", "switch fluorescence ratio": 0.958}, {"sequence": "TACCGTCCGG", "switch fluorescence ratio": 1.01}, {"sequence": "TACCTACGCG", "switch fluorescence ratio": 1.42}, {"sequence": "TACCTAGGAG", "switch fluorescence ratio": 1.05}, {"sequence": "TACCTATGTC", "switch fluorescence ratio": 0.997}, {"sequence": "TACCTGCTCC", "switch fluorescence ratio": 1.42}, {"sequence": "TACCTGGGCG", "switch fluorescence ratio": 1.02}, {"sequence": "TACCTGTAC", "switch fluorescence ratio": 1.33}, {"sequence": "TACCTTACGC", "switch fluorescence ratio": 1.45}, {"sequence": "TACCTTGCTT", "switch fluorescence ratio": 1.09}, {"sequence": "TACGAAAATA", "switch fluorescence ratio": 1.08}, {"sequence": "TACGAAACCG", "switch fluorescence ratio": 1.17}, {"sequence": "TACGAAAGTA", "switch fluorescence ratio": 0.991}, {"sequence": "TACGAAATGA", "switch fluorescence ratio": 1.99}, {"sequence": "TACGAAGCGC", "switch fluorescence ratio": 1.89}, {"sequence": "TACGACATTA", "switch fluorescence ratio": 1.18}, {"sequence": "TACGAGAAGT", "switch fluorescence ratio": 1.04}, {"sequence": "TACGAGAGGG", "switch fluorescence ratio": 1}, {"sequence": "TACGAGGAG", "switch fluorescence ratio": 1.04}, {"sequence": "TACGATACCA", "switch fluorescence ratio": 1.39}, {"sequence": "TACGATACTT", "switch fluorescence ratio": 1.5}, {"sequence": "TACGCCCTTC", "switch fluorescence ratio": 1.15}, {"sequence": "TACGCGAACC", "switch fluorescence ratio": 1.27}, {"sequence": "TACGCTTCA", "switch fluorescence ratio": 1.06}, {"sequence": "TACGGAAGAG", "switch fluorescence ratio": 1.11}, {"sequence": "TACGGATTCG", "switch fluorescence ratio": 1}, {"sequence": "TACGGCCAGC", "switch fluorescence ratio": 1.07}, {"sequence": "TACGGCCTCA", "switch fluorescence ratio": 1.05}, {"sequence": "TACGGGACCT", "switch fluorescence ratio": 1.42}, {"sequence": "TACGGGGATA", "switch fluorescence ratio": 0.95}, {"sequence": "TACGGGGCAC", "switch fluorescence ratio": 1.02}, {"sequence": "TACGGGGGT", "switch fluorescence ratio": 0.992}, {"sequence": "TACGGTAGGT", "switch fluorescence ratio": 1}, {"sequence": "TACGGTTAA", "switch fluorescence ratio": 1.14}, {"sequence": "TACGGTTGTC", "switch fluorescence ratio": 1.06}, {"sequence": "TACGTATTTC", "switch fluorescence ratio": 1.13}, {"sequence": "TACGTCAAGC", "switch fluorescence ratio": 1.39}, {"sequence": "TACGTCTCAC", "switch fluorescence ratio": 1.22}, {"sequence": "TACGTGAGT", "switch fluorescence ratio": 0.976}, {"sequence": "TACGTGGCAA", "switch fluorescence ratio": 1.03}, {"sequence": "TACGTGGGCA", "switch fluorescence ratio": 0.993}, {"sequence": "TACGTTATCA", "switch fluorescence ratio": 1.12}, {"sequence": "TACGTTATTG", "switch fluorescence ratio": 1.13}, {"sequence": "TACGTTGATG", "switch fluorescence ratio": 1.02}, {"sequence": "TACGTTGGGT", "switch fluorescence ratio": 0.962}, {"sequence": "TACTAAACAG", "switch fluorescence ratio": 1.06}, {"sequence": "TACTAACGTA", "switch fluorescence ratio": 1.48}, {"sequence": "TACTAAGTGC", "switch fluorescence ratio": 1.04}, {"sequence": "TACTAATGAC", "switch fluorescence ratio": 0.98}, {"sequence": "TACTAATTAC", "switch fluorescence ratio": 1.1}, {"sequence": "TACTAATTGA", "switch fluorescence ratio": 1.06}, {"sequence": "TACTACGTGG", "switch fluorescence ratio": 1.02}, {"sequence": "TACTACGTTA", "switch fluorescence ratio": 1.24}, {"sequence": "TACTAGCCGC", "switch fluorescence ratio": 1.08}, {"sequence": "TACTAGTAAG", "switch fluorescence ratio": 1.03}, {"sequence": "TACTCACAG", "switch fluorescence ratio": 1.13}, {"sequence": "TACTCAGGGT", "switch fluorescence ratio": 1.19}, {"sequence": "TACTCGCTTA", "switch fluorescence ratio": 1.14}, {"sequence": "TACTCTAATT", "switch fluorescence ratio": 1.02}, {"sequence": "TACTCTACCA", "switch fluorescence ratio": 1.35}, {"sequence": "TACTCTCATC", "switch fluorescence ratio": 1.08}, {"sequence": "TACTCTGGTA", "switch fluorescence ratio": 1.06}, {"sequence": "TACTGAAAGC", "switch fluorescence ratio": 1.05}, {"sequence": "TACTGACTGT", "switch fluorescence ratio": 1.13}, {"sequence": "TACTGGTC", "switch fluorescence ratio": 1.02}, {"sequence": "TACTGGTTTT", "switch fluorescence ratio": 1}, {"sequence": "TACTGTTCTC", "switch fluorescence ratio": 1.02}, {"sequence": "TACTTCTGGT", "switch fluorescence ratio": 1.01}, {"sequence": "TACTTGCCTT", "switch fluorescence ratio": 1.06}, {"sequence": "TACTTGGTAG", "switch fluorescence ratio": 0.961}, {"sequence": "TACTTTTGTA", "switch fluorescence ratio": 0.964}, {"sequence": "TAGAAAGC", "switch fluorescence ratio": 0.984}, {"sequence": "TAGAAATACA", "switch fluorescence ratio": 1.09}, {"sequence": "TAGAACGAG", "switch fluorescence ratio": 0.996}, {"sequence": "TAGAACTGCC", "switch fluorescence ratio": 1.18}, {"sequence": "TAGAAGGGTA", "switch fluorescence ratio": 0.983}, {"sequence": "TAGAAGGTCT", "switch fluorescence ratio": 1}, {"sequence": "TAGAAGTCTT", "switch fluorescence ratio": 1.01}, {"sequence": "TAGAATCGG", "switch fluorescence ratio": 0.988}, {"sequence": "TAGAATTCAG", "switch fluorescence ratio": 0.967}, {"sequence": "TAGAATTCCC", "switch fluorescence ratio": 1.03}, {"sequence": "TAGACACCTC", "switch fluorescence ratio": 0.946}, {"sequence": "TAGACAGGCT", "switch fluorescence ratio": 0.986}, {"sequence": "TAGACCAGAT", "switch fluorescence ratio": 0.983}, {"sequence": "TAGACCCTGA", "switch fluorescence ratio": 1}, {"sequence": "TAGACCCTTT", "switch fluorescence ratio": 0.968}, {"sequence": "TAGACCGTTT", "switch fluorescence ratio": 0.973}, {"sequence": "TAGACTAACC", "switch fluorescence ratio": 1.13}, {"sequence": "TAGACTAGGA", "switch fluorescence ratio": 0.971}, {"sequence": "TAGACTATTG", "switch fluorescence ratio": 1.01}, {"sequence": "TAGACTCGCC", "switch fluorescence ratio": 1.03}, {"sequence": "TAGAGACGAG", "switch fluorescence ratio": 0.931}, {"sequence": "TAGAGAGGTT", "switch fluorescence ratio": 1.01}, {"sequence": "TAGAGATGCG", "switch fluorescence ratio": 0.978}, {"sequence": "TAGAGCACAC", "switch fluorescence ratio": 1.09}, {"sequence": "TAGAGGAAGT", "switch fluorescence ratio": 1.01}, {"sequence": "TAGAGTCAGG", "switch fluorescence ratio": 0.984}, {"sequence": "TAGAGTGTGC", "switch fluorescence ratio": 0.989}, {"sequence": "TAGATAC", "switch fluorescence ratio": 1.44}, {"sequence": "TAGATATGAT", "switch fluorescence ratio": 0.958}, {"sequence": "TAGATCAATC", "switch fluorescence ratio": 1.04}, {"sequence": "TAGATCCCC", "switch fluorescence ratio": 1.01}, {"sequence": "TAGATCCT", "switch fluorescence ratio": 1.04}, {"sequence": "TAGATGAGTG", "switch fluorescence ratio": 1.01}, {"sequence": "TAGATGCCGT", "switch fluorescence ratio": 0.987}, {"sequence": "TAGATGCTC", "switch fluorescence ratio": 1.18}, {"sequence": "TAGATGGCGT", "switch fluorescence ratio": 1.01}, {"sequence": "TAGATGGTAC", "switch fluorescence ratio": 1.03}, {"sequence": "TAGATTCAGA", "switch fluorescence ratio": 0.979}, {"sequence": "TAGATTTTAG", "switch fluorescence ratio": 0.997}, {"sequence": "TAGCAAAAG", "switch fluorescence ratio": 1.24}, {"sequence": "TAGCAAGAGG", "switch fluorescence ratio": 1.42}, {"sequence": "TAGCAATCAT", "switch fluorescence ratio": 1.33}, {"sequence": "TAGCACACCC", "switch fluorescence ratio": 1.52}, {"sequence": "TAGCACACGG", "switch fluorescence ratio": 1.12}, {"sequence": "TAGCACATGT", "switch fluorescence ratio": 1.01}, {"sequence": "TAGCACGAGA", "switch fluorescence ratio": 1.05}, {"sequence": "TAGCACTAAT", "switch fluorescence ratio": 1.03}, {"sequence": "TAGCAGCGCA", "switch fluorescence ratio": 1.03}, {"sequence": "TAGCAGGTCC", "switch fluorescence ratio": 1.06}, {"sequence": "TAGCAGTTTT", "switch fluorescence ratio": 1}, {"sequence": "TAGCCAGAGG", "switch fluorescence ratio": 1.08}, {"sequence": "TAGCCAGCTA", "switch fluorescence ratio": 0.988}, {"sequence": "TAGCCCGACC", "switch fluorescence ratio": 1.06}, {"sequence": "TAGCCGACCT", "switch fluorescence ratio": 0.984}, {"sequence": "TAGCCGGGG", "switch fluorescence ratio": 0.996}, {"sequence": "TAGCCTATGC", "switch fluorescence ratio": 0.976}, {"sequence": "TAGCCTCCA", "switch fluorescence ratio": 1.07}, {"sequence": "TAGCGACTGT", "switch fluorescence ratio": 1.01}]}]}
